Measurements as given in PubChem BioAssay AID624173 (National Center for Advancing Translational Sciences (NCATS), 2012).
The whole screen tested about 410,000 compounds, of which about 490 (0.12%) were called active. Inconclusive results, whose numbers are uncertain, are shown with a selection of clear calls. Calls come from the whole dose curve; as a rule, active = well fitted inhibition curve with a large enough effect; inconclusive = small, poorly fitted or top-dose-only effect; inactive = flat fitted curve, though single readings scatter. Potencies beside an inconclusive call are fits to weak or partial responses and may not hold up.

molecular target: pyruvate kinase (Trypanosoma brucei) (UniProt Q57TT1); assay: qHTS of Trypanosoma Brucei Inhibitors; settings: TbPYK enzyme, Kinase-Glo Plus ATP luminescence, 45 min; series mostly up to 76.8 µM; activity, negative = inhibition: at the top concentration; note: nearly all actives have a fitted effect of over 50% in size
Outline: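 Quantitative HTS: titrated library compounds versus trypanosomal pyruvate kinase in TEA buffer (pH 7.2) containing KCl, MgCl2, BSA and Tween-20. Reactions were initiated with ADP, 130 uM final. Kinase-Glo Plus luminescence was read after 45 min at RT.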
% is set by controls: 0 for no effect and ±100 for the full control effect; potency is the fitted concentration of half-maximal effect; tags give direction and shape of the fitted curve.

SMILES	Potency	activity, negative = inhibition
CCN(CC)Cc1cc(C(C)(C)C)cc(N2CCOCC2)c1O	inconclusive: 25.1 µM [inhibitor, partial curve]	–
COc1cccc(NC(=O)c2cn(C)c(=O)c3cc(OC)c(OC)cc23)c1	inconclusive: 35.5 µM [inhibitor, single point]	–
Cc1nnc(N2CCN(c3ccccc3)CC2)[nH]c1=O	inconclusive: 35.5 µM [inhibitor, partial curve, poor fit]	–
O=C1S/C(=C\c2ccc(N3CCOCC3)o2)C(=O)N1Cc1c(F)cccc1Cl	active: 25.1 µM	–
CC1=NOC(=O)/C1=C/c1ccc2c(c1)OCO2	inconclusive: 35.5 µM [inhibitor, single point]	–
C=C(CN(C)C)C(=O)c1cc(OC)c(OC)cc1OC	inconclusive: 39.8 µM [inhibitor, single point]	–
CC(C)N1CCC2(CC1)N=C(c1ccc3c(c1)OCO3)CC(c1cc(Cl)ccc1O)N2 (stereo not given)	–	inactive: 3.57%
O=C1C=CC(=Nc2ccc3c(c2)Cc2cc(F)ccc2-3)O1	inconclusive: 14.1 µM [inhibitor, partial curve]	–
Oc1cc2c(c(Cl)c1O)CCNCC2c1ccccc1 (stereo not given)	inconclusive: 28.2 µM [inhibitor, single point]	–
Cc1cc(NC(=O)c2cccc(F)c2)ncc1NC(=O)c1ccco1	inconclusive: 25.1 µM [inhibitor, single point]	–
CCCCCCn1c(-c2cccs2)n[nH]c1=S	active: 2.82 µM	–
COc1ccc(C(=O)NCc2nnc(SCC(=O)Nc3ccc(F)cc3)n2-c2ccccc2)cc1	–	inactive: 8.54%
CN1C(=O)/C(=C/c2cccn2-c2ccc3ccccc3c2)C(=O)NC1=S	inconclusive: 25.1 µM [inhibitor, partial curve, poor fit]	–
Fc1cccc(Cc2c(-c3ccco3)nc3ccc(Br)cn23)c1	active: 25.1 µM	–
Oc1ccc(CNc2ccccc2O)cc1	inconclusive: 6.31 µM [inhibitor, full curve]	–
Nc1nc(Nc2ccccc2Br)nc(C(F)(F)F)n1	–	inactive: 0.633%
N#C/C(=C/c1ccc(N2CCCCCC2)o1)c1ccc(F)cc1	inconclusive: 35.5 µM [inhibitor, single point]	–
Cc1cccc(C)c1NC(=O)N1C(C(=O)O)CSC1C(=O)O (stereo not given)	inconclusive: 35.5 µM [inhibitor, single point]	–
CCCc1cc(=S)n2c([nH]c3ccccc32)c1C#N	inconclusive: 39.8 µM [inhibitor, partial curve, poor fit]	–
CCOc1cccc(C(=O)Nc2ccc(N(CC)CC)cc2)c1	inconclusive: 22.4 µM [inhibitor, partial curve]	–
Cc1c(Br)cc(C(=O)OC2CCN(C)CC2)c(C)c1C	inconclusive: 50.1 µM [inhibitor, single point]	–
CC(C(=O)NCc1cccc(Br)c1)n1ncn2cccc2c1=O (stereo not given)	–	inactive: -4.18%
COc1cccc(C2CC(c3cccc(Br)c3)n3nc(N)nc3N2)c1 (stereo not given)	inconclusive: 44.7 µM [inhibitor, single point]	–
Cc1ccccc1OCC(=O)Nc1ccc(N2CCN(C(=O)c3ccco3)CC2)cc1	–	inactive: -0.445%
Oc1ccc(-c2n[nH]c(=S)n2Cc2ccco2)cc1	inconclusive: 5.62 µM [inhibitor, full curve]	–

SMILES	Potency	activity, negative = inhibition
CCOc1ccc(NC(=O)Cn2sc3nc(C)cc(C)c3c2=O)cc1	active: 5.62 µM	–
O=C(CSC1=NS(=O)(=O)c2ccccc21)Nc1ccccc1	inconclusive: 22.4 µM [inhibitor, partial curve, poor fit]	–
CC(=O)Nc1cccc(-c2csc(Nc3cc(C)ccn3)n2)c1	–	inactive: 2.78%
O=C(CSc1nccc(-c2cccs2)n1)Nc1ccc(Cl)cc1	–	inactive: -3.75%
Cc1ccc(OCCOc2cccc(C=C3C(=O)NC(=O)NC3=O)c2)cc1	inconclusive: 35.5 µM [inhibitor, partial curve]	–
C/C(=N\NC(=O)c1n[nH]c2c1CCC2)c1ccco1	inconclusive: 25.1 µM [inhibitor, partial curve, poor fit]	–
CNc1sc(C(=O)c2ccc(F)cc2)c(N)c1-c1nc2ccccc2s1	inconclusive: 35.5 µM [inhibitor, single point]	–
CCOC(=O)c1sc(NC(=O)c2ccccc2OCC)nc1C	–	inactive: -2.61%
O=C(NCc1ccccc1Cl)c1ccc(NC(=O)c2nsc3ccccc23)cc1	–	inactive: -3.5%
c1ccc(-c2cn3nc4c(nc3n2)CCCC4)cc1	inconclusive: 39.8 µM [inhibitor, partial curve, poor fit]	–
Cc1ccc(-n2c(-c3ccncc3)n[nH]c2=S)cc1C	inconclusive: 3.98 µM [inhibitor, partial curve]	–
Cc1ccc(S(=O)(=O)N(Cc2n[nH]c(=S)n2-c2ccccc2)c2cccc(Cl)c2)cc1	inconclusive: 28.2 µM [inhibitor, partial curve]	–
COc1ccc(S(=O)(=O)Nc2ccc(F)cc2)cc1N(C)S(=O)(=O)c1ccc(Cl)cc1	–	inactive: 2.96%
CC(C)c1cc2c(c(O)c1O)[C@@]13CCCC(C)(C)C1CC2OC3=O (stereo not given in full)	inconclusive: 2.24 µM [inhibitor, partial curve, poor fit]	–
C=CCn1c(CCNC(=O)c2ccccc2F)nnc1SCc1nc2ccccc2c(=O)[nH]1	inconclusive: 0.794 µM [inhibitor, full curve, poor fit]	–
Oc1ccc(-c2cn3c(n2)SCC3)cc1	–	inactive: -10.4%
COc1ccc(-c2csc(NC(=O)CSc3n[nH]c(C)n3)n2)cc1	–	inactive: 0%
COc1cc(NC(=O)c2cnn(-c3cccc(F)c3)c2C2CCNCC2)cc(OC)c1OC	–	inactive: -4.37%
Cc1nn(CC(=O)NNC(=S)Nc2ccccc2)c(C)c1[N+](=O)[O-]	inconclusive: 25.1 µM [inhibitor, partial curve, poor fit]	–
COc1ccc2cc3cc(C(=O)NCC4COc5ccccc5O4)oc3nc2c1 (stereo not given)	–	inactive: 0.959%
Cc1ccc2nc(N(Cc3cccnc3)C(=O)C3COc4ccccc4O3)sc2c1 (stereo not given)	–	inactive: 3.28%
Cc1ccccc1NC(=O)C1c2cccc[n+]2CC(=O)N1c1c(C)cccc1C (stereo not given)	inconclusive: 31.6 µM [inhibitor, single point]	–
COc1ccc(OC)c(NCCN2C(=O)c3ccccc3C2=O)c1	inconclusive: 25.1 µM [inhibitor, partial curve, poor fit]	–
Cc1cccc(-c2nc(CS(=O)CC(=O)NC3CCCCC3)c(C)o2)c1 (stereo not given)	–	inactive: -6.96%
CCc1ccccc1-n1c(-c2ccncc2)n[nH]c1=S	active: 25.1 µM	–

SMILES	Potency	activity, negative = inhibition
CCC(=O)NC1=C(Cl)C(=O)C(NC(=O)CC)=C(Cl)C1=O	active: 2.51 µM	–
FC(F)(F)c1ccccc1/C=N/N1CCN(Cc2ccccc2)CC1	–	inactive: 5.45%
Cc1ccc(/C=N/n2c(-c3ccncc3)n[nH]c2=S)o1	inconclusive: 12.6 µM [inhibitor, partial curve, poor fit]	–
COCCNC(=O)C1(C)CCCN(CCSc2ccccc2)C1 (stereo not given)	–	inactive: 0.107%
Cc1cc(C)c(NC(=O)c2ccc3c(c2)NC(=O)C(C)S3)c(C)c1 (stereo not given)	–	inactive: -3.28%
S=c1[nH]nc(-c2cc3ccccc3o2)n1Cc1ccccc1	inconclusive: 15.8 µM [inhibitor, partial curve, poor fit]	–
Cc1ccc(NCc2nnc(SCC(=O)NCc3ccco3)n2CC2CCCO2)c(C)c1 (stereo not given)	–	inactive: 3.8%
O=C(N/C(=C/c1ccco1)C(=O)N1CCCCCC1)c1cccs1	inconclusive: 31.6 µM [inhibitor, single point]	–
CCN1C(=O)c2ccccc2S(=O)c2ccc(C(=O)NCc3ccc(C)cc3)cc21 (stereo not given)	inconclusive: 22.4 µM [inhibitor, partial curve, poor fit]	–
O=C1CCC(/C=C/c2ccccc2)=NN1	–	inactive: 2.8%
COc1ccc(-c2noc(C3CCCN(C(=O)c4ccccc4)C3)n2)cc1 (stereo not given)	–	inactive: -5.67%
O=C(Nc1n[nH]c(=S)s1)c1ccco1	inconclusive: 17.8 µM [inhibitor, partial curve, poor fit]	–
CN=c1scc(C)n1/N=C/c1ccc(O)c(O)c1O	inconclusive: 10 µM [inhibitor, partial curve, poor fit]	–
COc1cc(O)c(NC(C)=O)c2nonc12	inconclusive: 31.6 µM [inhibitor, partial curve, poor fit]	–
S=C(Nc1ccccc1)N1CCn2c1nc1ccccc12	–	inactive: 0%
CCCCCCCCn1sccc1=O	inconclusive: 17.8 µM [inhibitor, partial curve, poor fit]	–
Nn1c(-c2cccc(Br)c2)n[nH]c1=S	inconclusive: 11.2 µM [inhibitor, partial curve]	–
Cc1ccc(C(C2=C(O)CC(C)(C)CC2=O)C2C(=O)CC(C)(C)CC2=O)o1 (stereo not given)	inconclusive: 25.1 µM [inhibitor, partial curve]	–
COc1ccccc1OCC(=O)N/N=C/c1cccc2cccnc12	–	inactive: -5.98%
Nc1nc(NCc2ccco2)nc(Nc2ccc(F)cc2)c1[N+](=O)[O-]	–	inactive: -6.56%
S=c1[nH]nc(-c2ccccn2)n1/N=C/c1cccs1	inconclusive: 17.8 µM [inhibitor, partial curve]	–
Cc1ccc(OCCCCn2ccnc2)c([N+](=O)[O-])c1	–	inactive: -18.7%
COc1ccc(N2C(=O)/C(=C/c3ccc(OC)c(OC)c3)C(=O)NC2=S)cc1	inconclusive: 20 µM [inhibitor, partial curve, poor fit]	–
Cc1cc(C)cc(NC(=O)OCCN2CCN(Cc3ccccc3)CCC2=O)c1	–	inactive: -2.38%
O=S(=O)(Nc1cc(Sc2ncn[nH]2)c(O)c2ccccc12)c1ccccc1	inconclusive: 15.8 µM [inhibitor, partial curve]	–
